From a collection of fitness landscapes (doi:10.1126/science.1257360)
The list shows a part of the results.

B1: PhoQ; a variant is named by its letters at X, in order, P23837 (parent)
chain: MKKLLRLFFPLSLRVRFLLATAAVVLVLSLAYGMVALIGYSVSFDKTTFRLLRGESNLFYTLAKWENNKLHVELPENIDKQSPTMTLIYDENGQLLWAQRDVPWLMKMIQPDWLKSNGFHEIEADVNDTSLLLSGDHSIQQQLQEVREDDDDAEMTHSVAVNVYPATSRMPKLTIVVVDTIPVELKSSYMVWSWFIYVLSANLLLVIPLLWVAAWWSLRPIEALAKEVRELEEHNRELLNPATTRELTSLVRNLNRLLKSERERYDKYRTTLTDLTHSLKTPLXXLQXXLRSLRSEKMSVSDAEPVMLEQISRISQQIGYYLHRASMRGGTLLSRELHPVAPLLDNLTSALNKVYQRKGVNISLDISPEISFVGEQNDFVEVMGNVLDNACKYCLEFVEISARQTDEHLYIVVEDDGPGIPLSKREVIFDRGQRVDTLRPGQGVGLAVAREITEQYEGKIVAGESMLGGARMEVIFGRQHSAPKDE

Variants of: B1
Assay: enrichment ratio after two sorts for PhoP signalling (ratio (wild type AVST 3.29)); higher = more functional
Details: with PhoP (E. coli)

| Variant | enrichment ratio |
| --- | --- |
| SSTP | ≤ 0.25 |
| YDAQ | ≤ 0.25 |
| VRME | ≤ 0.25 |
| AEQF | ≤ 0.25 |
| GLAL | 12.9 |
| VPDI | ≤ 0.25 |
| YCLD | ≤ 0.25 |
| VQMS | ≤ 0.25 |
| LHNG | ≤ 0.25 |
| LFMS | ≤ 0.25 |
| RSRR | ≤ 0.25 |
| FLYI | ≤ 0.25 |
| QMKT | ≤ 0.25 |
| VTHT | ≤ 0.25 |
| LQDC | ≤ 0.25 |
| VQKT | ≤ 0.25 |
| HIFN | ≤ 0.25 |
| VQNN | ≤ 0.25 |
| KCTD | ≤ 0.25 |
| ISVQ | ≤ 0.25 |
| PLFK | ≤ 0.25 |
| HIPY | ≤ 0.25 |
| IVFV | ≤ 0.25 |
| GHRP | ≤ 0.25 |
| LHSQ | ≤ 0.25 |

| Variant | enrichment ratio |
| --- | --- |
| IKLM | ≤ 0.25 |
| RLKC | ≤ 0.25 |
| VGLC | 16.6 |
| KQMG | ≤ 0.25 |
| EPYD | ≤ 0.25 |
| LWIA | ≤ 0.25 |
| YPFE | ≤ 0.25 |
| SNRN | ≤ 0.25 |
| VPGL | ≤ 0.25 |
| NPGN | ≤ 0.25 |
| TNAK | ≤ 0.25 |
| RINA | ≤ 0.25 |
| ITKK | ≤ 0.25 |
| HTQK | ≤ 0.25 |
| ACWR | ≤ 0.25 |
| IYNR | ≤ 0.25 |
| GHCI | ≤ 0.25 |
| MVNT | ≤ 0.25 |
| STIK | 4.61 |
| HTLT | ≤ 0.25 |
| QKPI | ≤ 0.25 |
| QDCS | ≤ 0.25 |
| LFKF | ≤ 0.25 |
| LEGE | ≤ 0.25 |
| YERF | ≤ 0.25 |

| Variant | enrichment ratio |
| --- | --- |
| SFDQ | ≤ 0.25 |
| AGAW | ≤ 0.25 |
| YQKG | ≤ 0.25 |
| SGTS | 7.16 |
| PGMK | ≤ 0.25 |
| MTKP | ≤ 0.25 |
| TPHR | 0.681 |
| PDAI | ≤ 0.25 |
| LKGY | ≤ 0.25 |
| CMAC | 23.4 |
| LFMQ | ≤ 0.25 |
| PSLA | ≤ 0.25 |
| HKDV | ≤ 0.25 |
| HRYS | ≤ 0.25 |
| GGPD | ≤ 0.25 |
| THEI | ≤ 0.25 |
| EVFH | ≤ 0.25 |
| MGRC | ≤ 0.25 |
| MPPH | ≤ 0.25 |
| WFMM | ≤ 0.25 |
| KCCF | ≤ 0.25 |
| SKQK | ≤ 0.25 |
| RFIE | ≤ 0.25 |
| AFYI | ≤ 0.25 |
| SNAE | 7.95 |

| Variant | enrichment ratio |
| --- | --- |
| VMAG | ≤ 0.25 |
| WRFG | ≤ 0.25 |
| NRMP | ≤ 0.25 |
| FWQE | ≤ 0.25 |
| NVAH | ≤ 0.25 |
| IPML | ≤ 0.25 |
| GWAF | ≤ 0.25 |
| DYCQ | ≤ 0.25 |
| TNWQ | ≤ 0.25 |
| QCRP | ≤ 0.25 |
| HAGT | ≤ 0.25 |
| NRYP | ≤ 0.25 |
| HGRL | ≤ 0.25 |
| QYID | ≤ 0.25 |
| WSDG | ≤ 0.25 |
| TKAF | ≤ 0.25 |
| RFSV | ≤ 0.25 |
| QPLS | ≤ 0.25 |
| SMDI | ≤ 0.25 |
| KMIL | ≤ 0.25 |
| ITVD | ≤ 0.25 |
| ESFD | ≤ 0.25 |
| NDSY | ≤ 0.25 |
| YQTQ | ≤ 0.25 |
| KDGG | ≤ 0.25 |

| Variant | enrichment ratio |
| --- | --- |
| ICST | ≤ 0.25 |
| LKEM | ≤ 0.25 |
| QLQM | ≤ 0.25 |
| YWWL | ≤ 0.25 |
| RACQ | ≤ 0.25 |
| WEAN | ≤ 0.25 |
| DFYQ | ≤ 0.25 |
| MPFF | ≤ 0.25 |
| SWVH | ≤ 0.25 |
| TMYF | ≤ 0.25 |
| MQPY | ≤ 0.25 |
| WERF | ≤ 0.25 |
| KAAY | ≤ 0.25 |
| DTHC | ≤ 0.25 |
| NSGV | ≤ 0.25 |
| TAVF | ≤ 0.25 |
| AYNN | ≤ 0.25 |
| QMCW | ≤ 0.25 |
| WMRW | ≤ 0.25 |
| PINP | ≤ 0.25 |
| DSSP | ≤ 0.25 |
| EEYR | ≤ 0.25 |
| TMQQ | 5.11 |
| LEYQ | ≤ 0.25 |
| EFYR | ≤ 0.25 |

| Variant | enrichment ratio |
| --- | --- |
| EDPK | ≤ 0.25 |
| FRYR | ≤ 0.25 |
| MNMC | 3.1 |
| QHRR | ≤ 0.25 |
| YDAE | ≤ 0.25 |
| TLLI | 0.644 |
| TCLS | 7.88 |
| WSQG | ≤ 0.25 |
| FSQW | ≤ 0.25 |
| HMCR | ≤ 0.25 |
| GVAS | 0.335 |
| ITTR | ≤ 0.25 |
| FRFE | ≤ 0.25 |
| QAHD | ≤ 0.25 |
| DERP | ≤ 0.25 |
| LAWG | ≤ 0.25 |
| ANRV | ≤ 0.25 |
| FRAR | ≤ 0.25 |
| NNRP | ≤ 0.25 |
| VCIV | ≤ 0.25 |
| DIQF | ≤ 0.25 |
| NYVH | ≤ 0.25 |
| VFRA | ≤ 0.25 |
| TWCS | ≤ 0.25 |
| ESCL | ≤ 0.25 |

| Variant | enrichment ratio |
| --- | --- |
| TNMW | ≤ 0.25 |
| TYIA | ≤ 0.25 |
| YKDN | ≤ 0.25 |
| SFTY | ≤ 0.25 |
| KQVK | ≤ 0.25 |
| LREE | ≤ 0.25 |
| WKYS | ≤ 0.25 |
| IYRT | ≤ 0.25 |
| MMPR | ≤ 0.25 |
| AGDT | ≤ 0.25 |
| GMSI | 1.75 |
| PQRH | ≤ 0.25 |
| VMMH | ≤ 0.25 |
| VMPP | ≤ 0.25 |
| DEPH | ≤ 0.25 |
| FFHK | ≤ 0.25 |
| DEHY | ≤ 0.25 |
| KRSF | ≤ 0.25 |
| VYCG | ≤ 0.25 |
| IMPA | ≤ 0.25 |
| AHAC | ≤ 0.25 |
| AWCI | ≤ 0.25 |
| QILV | ≤ 0.25 |
| KMHG | ≤ 0.25 |
| HDMI | ≤ 0.25 |

| Variant | enrichment ratio |
| --- | --- |
| GHVA | ≤ 0.25 |
| IDWS | ≤ 0.25 |
| QVRL | ≤ 0.25 |
| HSFY | ≤ 0.25 |
| KAQW | ≤ 0.25 |
| KQGH | ≤ 0.25 |
| KMYT | ≤ 0.25 |
| FMMA | ≤ 0.25 |
| DRCG | ≤ 0.25 |
| EYVH | ≤ 0.25 |
| DTES | ≤ 0.25 |
| YVKI | ≤ 0.25 |
| AYFK | ≤ 0.25 |
| VNKH | ≤ 0.25 |
| ADMQ | ≤ 0.25 |
| WGKC | ≤ 0.25 |
| YWVC | ≤ 0.25 |
| GWRS | ≤ 0.25 |
| PTPW | ≤ 0.25 |
| MPGY | ≤ 0.25 |
